The source gives no read counts; variants with many changes may rest on few reads.
B1: CPEB3 Ribozyme (parent)
chain: UAACAGGGGGCCACAGCAGAAGCGUUCACGUCGCAGCCCCUGUCAGAUUCUGGUGAAUCUGCGAAUUCUGCUGUAUAUCUC

Variants of: B1
Assay: self-cleavage, relative activity (ratio to wild type); higher = more cleavage; in vitro, sequencing
Outline: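 After error-prone PCR and barcoding, CPEB3 ribozyme mutant libraries were transcribed with T7 RNA polymerase at 37°C for 5 hours, then given 15 min with DNase I before an EDTA stop, and they cleaved during both steps. Reverse transcription with template switching preceded Illumina sequencing. Relative activity divides a variant's cleaved/total read fraction by the unmutated ribozyme's. At least 5 reads were required per variant, and three batches were averaged.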

Variant	self-cleavage
A5G A13U A45G C59U U72C U80C	0.08
A5G A15U A21U U74A U80A	0.07
A5G A15G U31A U41C U54C U72A	0.23
A5G A18G A28U U41A U69A A75U	0.07
A5G A18C G53A	0.45
A5G A13C U26A U49C U60C	0.12
A5G A13G A15G A28G	0.14
A5C U60A A77U	0.42
A5G A15U A75C U80C	0.75
A5G A13U U60C U78C	0.17
A5G A15U U31A U78C	0.45
A5G A15C A21G U67C	0.08
A5G A15G C44G C62G U66C	0.25
A5G A13U C32G C37A C40U	0.09
A5G A13G G22A U31A A57G	0.25
A5G A15G A18U U60C	0.09
A5G A13U A20G A47G	0.37
A5G A13U U69C	0.3
A5C U49C U51C C62U U76A	0.29
A5G A15U A18U A28U A47C A77U	0.54
A5G A15G A64G U80A	0.61

Variant	self-cleavage
A5G A15U U43A	0.53
A5G A15U U43C	0.76
A5G A15G A28G C62U U72C	0.27
A5G A13U U41C U49C	0.21
A5G A15G A20U C32U	0.17
A5G A15U U54C	0.48
A5G A15G A28G U31A U41A A56G	0
A5G A13U A20G U25C U31C A45G	0.25
A5C U54G U74A	0.95
A5G A13G U25C G70A	0.22
A5G A13U G53U	0.98
A5G A15G A21G U76G	0.39
A5G A13G A28U U78C	0.2
A5G A13U A35U A56G U66C	0.06
A5G A18G A20G A28G U43A A64U U67C	0
A5G A15U U54C U80C	0.65
A5G A13G U41A U51C A64U	0.12
A5G A15U A35G A65G G70C U80A	0.34
A5G A13G C40A U66C U69A	0.14
A5G A15G A75G	0.53
A5G A15G A75U	0.7

Variant	self-cleavage
A5G A15G U51A A57G U58C	0.17
A5C U48C U69A U78C	0.35
A5G A13G A28U A47G A57G A77U	0.09
A5G A13G A21G U51G	0.24
A5G A13U C44A	0.09
A5G A15G A28U U43A A56U	0.15
A5G A13G U41C C50U	0.24
A5G A13C G24A A45U	0.32
A5G A15G A28G A45G U54G	0.4
A5G A15G U49C U80C	0.48
A5G A13C A15G	0.71
A5G A15G A35G A45G U66C	0.11
A5G A15G U67C U69A	0.25
A5G A15G U67C U69G	0.29
A5G A15U A20G A21G G73A	0.7
A5G A18G A35G A65G U69G	0.28
A5C U69G U78C	0.63
A5G A15G C17U C40U G46U C68U A77G	0.08
A5G A18G A21C U26A U60G	0.47
A5G A13U U41A U43C	0.35
A5G A15U G19A U49A U60C U74A U80G	0.06

Variant	self-cleavage
A5G A15G U54C	0.12
A5G A15G U49C	0.33
A5G A15G A35C	0.24
A5G A15G U41C G52A U60C	0.18
A5G A13U A35G A57G U67A	1.05
A5G A15G A47C U51C	0.25
A5G A15U A35G C71U	0.69
A5G A15G U31C A57C A64G	0.49
A5G A18G A35G A45U U48A U69A U78C	0.27
A5G A15U A28G A57G A64G U76C	0.39
A5G A15G C37U U41A	0.44
A5G A13U G19U U25C U26C U41G	0.09
A5G A13U A15G G33U A35U G46U	0.09
A5G A15G U69C	0.33
A5G A18C A28G U67A	0.06
A5G A13U A35G A45U	0.65
A5G A13G A18G U54A U69C	0.59
A5G A13G U72A U80C	0.48
A5G A13G G24A U51A G52C	0.43
A5G A15G C39U A56G	0.27
